The source gives no read counts; variants with many changes may rest on few reads.
B1: LINE1-mini (parent)
chain: GGCAGAGCUCAACACAGCGUGGCAAAGUGGCUGUGGCUAGACUGCC

Variants of: B1
Experiment: self-cleavage, relative activity (ratio to wild type); higher = more cleavage; in vitro, sequencing; the parent is a self-cleaving ribozyme

| Variant | self-cleavage |
| --- | --- |
| CGCAGAGCUCUACACAGCGUGGCAAACUGGCUGUGGCUAGUCUGCC [G1C A11U G27C A41U] | 0 |
| AGCAGAGCUCAACACAGCGUGGCAAAGUGCCUGUGGCUAGACAUCC [G1A G30C U43A G44U] | 0.02 |
| CGCAGAGCUCUACACAGGGUGAUAAAGUGGCUGUGGGUAGACUGCC [G1C A11U C18G G22A C23U C37G] | 0.01 |
| AGCAGAGCGCAUCACAACGUGGCAAAGGGGCUUUGGCUAGACUGCC [G1A U9G A12U G17A U28G G33U] | 0.04 |
| AGCAGAGCUCAACACAGCGUGUCAAAGUGGGUGUGGCUAGAAUGCC [G1A G22U C31G C42A] | 0.02 |
| CGCAGAGCUCAGCACAGCGUGGCAAAGUGGCUGUGGCUGGACUGCC [G1C A12G A39G] | 0.01 |
| AGCAGAGCUCAACACAGCGUGGCAAAGUGGCUGUGACUACACUGCC [G1A G36A G40C] | 0.18 |
| AGCAGAGCUCAACACAGCGUGUCAAAGUUGCUGUGGCUAGACUGCC [G1A G22U G29U] | 0.25 |
| AGCAGAGCUCAACACAGCGUUGCAAAGUGGCUGUGGCUAGACUUCC [G1A G21U G44U] | 0.34 |
| AGCAGAGCUCAACACAGCGUGGCAAAGCGGCUGUGGCCGGACUGCC [G1A U28C U38C A39G] | 0.05 |
| AGCAGAGCUCAACACAGCGUGGCAAACUGGCGGUUGCUGGACUGCC [G1A G27C U32G G35U A39G] | 0.12 |
| AGCAGAGCUCAACACAGCGGGGCAAAGAGGCUGUGGCUAGACUGCC [G1A U20G U28A] | 0.07 |
| CGCAGAGCUCAACCAAGCGUGGCAAAGUGCCUGUGGCUAGACUGCC [G1C A14C C15A G30C] | 0 |
| CGCAGGGCACAACACGGCGUGGCAAAGUGGCAGUGGCUAGACUGCC [G1C A6G U9A A16G U32A] | 0.02 |
| CGCAGAGCUCUACACAGCGUGGCAAAGUGGCUGUGGCUAGUCUGCC [G1C A11U A41U] | 0.02 |
| CGCAGAGCUCAUCACAGCGUGACAAAGUGGCUGUGGCUAGACUGCC [G1C A12U G22A] | 0.08 |
| CGCAGGGCCCAACACAGCGUGGCAAAGUGGCUGUGGCUAGAGUGCC [G1C A6G U9C C42G] | 0 |
| CGCAGGGCUUAACACAGCCUGGCAAAGUGGCUCUGGCUAGACUGCC [G1C A6G C10U G19C G33C] | 0.01 |
| AGCAGAGCUCAACACAGCAUGGUACAGUGGAUGUGGCUAGACUGCC [G1A G19A C23U A25C C31A] | 1.99 |

| Variant | self-cleavage |
| --- | --- |
| CGCUGAGCUCAACACAGGGUGGGAAAGUGGCUGUCUCUAGACUGCC [G1C A4U C18G C23G G35C G36U] | 0.04 |
| CGCAGAGCUCAACACGGCGUAGCAAAGUGACGGUGGCUAGACGGCC [G1C A16G G21A G30A U32G U43G] | 0.01 |
| CGCAGAGCUCAACGCAGCGUGGCAUAGUGGCUGUGGCUAGACUGCC [G1C A14G A25U] | 0.03 |
| CGCGGAGCUCAACAGAGCGUGGCAAAUUCGCGGUAGCUAGACUGCC [G1C A4G C15G G27U G29C U32G G35A] | 0.01 |
| AGCAGAGCUCAACACAGCGUGGCAAAGUGGCUCUGGAUAUACUACC [G1A G33C C37A G40U G44A] | 0.08 |
| AGCAGAGCUCAACACAGCGUGGCAAAGUGGCUGUGGCUAAACUGUC [G1A G40A C45U] | 0.33 |
| AGCAGAGCACAACACAGCGUCGCAAAGUGGCUGUGGCUGGACCGCC [G1A U9A G21C A39G U43C] | 0.84 |
| CGCAGAGCUCAACACUGCGUGGCAAAGUGCCUGUGGCUAGACUGCC [G1C A16U G30C] | 0.03 |
| CGCAGAGCUCUACACAGUGUGGCAAAGUGGCUGACGCUAGACUGCC [G1C A11U C18U U34A G35C] | 0 |
| CGCAGAGCUCCACACGGCGUUGCAAAGUGGCUGUGGCUAGACUGGC [G1C A11C A16G G21U C45G] | 0.01 |
| CGCAGAGCUCAACCCAGCAUGUCAAAGUGGCUGUGGCUAGACUGCC [G1C A14C G19A G22U] | 0.02 |
| CGCAGAGCUCACCACAGCGUGGCAAGGUGGCUGUGGCUAGACUGCC [G1C A12C A26G] | 0 |
| CGCAGCGCUCAACACAGGGUGGCAAAGUGGCUGUGGCUAGACUGCC [G1C A6C C18G] | 0.01 |
| CGCCGUGCUCAUCACAGCUUGGUAAAGUGGCUGUGGCUAGACUGCC [G1C A4C A6U A12U G19U C23U] | 0.11 |
| AGCAGAGCUCAACACAUCGUGGCAAAGUGGCUGUGGCUAGACUCCC [G1A G17U G44C] | 0.05 |
| CGCAGAGCUCAACUCAGCGUGACAAAGUGGCUGUGGAUAGACUGCC [G1C A14U G22A C37A] | 0.02 |
| AGCAGAGCUCAACACAGCAUGCCAAAGUGGCUGUGGCUAGACAGCC [G1A G19A G22C U43A] | 0.02 |
| CGCUGAGCUCAACACAGCUUGUCAAAGUGGCUGUGCCUAGACUGCC [G1C A4U G19U G22U G36C] | 0.06 |
| CGCAGAGCUCAACGCAGCGUGGCAACGUGGCUGUGGCUAGACUGCC [G1C A14G A26C] | 0.01 |

| Variant | self-cleavage |
| --- | --- |
| CGCUGAGCUGAACGCAGCGUGGCAAAGUGGCUGUGGCUAGACUGCC [G1C A4U C10G A14G] | 0 |
| CGCAGAGCUCAACACGGCGUUGCAAAGUGGCUGUGGCUAGACUGCC [G1C A16G G21U] | 0.08 |
| CGCAGAGCUCCACACAGCGUGGCAAAGUGGCUGUGGCUAGACUGAC [G1C A11C C45A] | 0.01 |
| CGCCAAGCUCAACACAGCGUGGGAAAGGGGCUGUCGCCAGACUGCC [G1C A4C G5A C23G U28G G35C U38C] | 0 |
| CGCAGAGCUCACCACAGCGUGGCAAAGUGGUUAUGGCUAGACUGCC [G1C A12C C31U G33A] | 0 |
| CGCAGAGCUCACCACAGCGUGGCAAAGUGGCUGUGGCUAGAUUGCC [G1C A12C C42U] | 0 |
| CGCAGAGCUCAACGCAGCGUGGGAAAGUGGCUGUGGCUAGACUGCC [G1C A14G C23G] | 0.1 |
| AGCAGAGCUCAACACAGCGUCGCACAGUGGCUGUUCCUAGACUGCC [G1A G21C A25C G35U G36C] | 0.17 |
| AGCAGAGCGCAACACAGCGUGGCAAAUUGGCUGUGGCUAGACUCCC [G1A U9G G27U G44C] | 0.17 |
| CGCAGUGCUCAACACAGCGUGGCAAAGUGGCUGGGGCUAGACUGCC [G1C A6U U34G] | 0.02 |
| AGCAGAGCUCAACACAGCGUGGCAAAGUGGCUGUAGCUAUACUGCC [G1A G35A G40U] | 0.06 |
| CGCAGAGCUCAACUCAGCGAGGCAAAGUGGAUAUGGCUAGACUGCC [G1C A14U U20A C31A G33A] | 0.01 |
| AGCAGAGCUCAACACAGCGUGGCAAAGUGGCUGAUGCUAGACUGCC [G1A U34A G35U] | 0.12 |
| AGCAGAGCUCAACACAGCGUGGCAAAGUGGCUGGGACUACACGGCC [G1A U34G G36A G40C U43G] | 0.03 |
| AGCAGAGCUCAACACAGCGUGGCAAAGUGGCUUGUGCUAGACUGAC [G1A G33U U34G G35U C45A] | 0.03 |
| AGCAGAGCUCAACACAGCGUGCCAAAUUAGCUGUGGCUAGACUGCC [G1A G22C G27U G29A] | 0.6 |
| CGCAGGGCUCAACAUAGCGUGGCAAAGUGGCUUUGGCUAGACUGCC [G1C A6G C15U G33U] | 0.01 |
| AGCAGAGCUCAACACAGCGUAGUAAUGUGGCUGUGGGUAGACUUAC [G1A G21A C23U A26U C37G G44U C45A] | 0.01 |

From the RNAGym collection of RNA variant scans (doi:10.7554/elife.90254)
